The chains are these.
B1: LINE1-mini (parent)
chain: GGCAGAGCUCAACACAGCGUGGCAAAGUGGCUGUGGCUAGACUGCC

Read counts are not given, so values of variants with three or more changes are uncertain.

Variants of B1 are the subject of the data set. The data set can be described thus: self-cleavage, relative activity (ratio to wild type); higher = more cleavage; in vitro, sequencing; the parent is a self-cleaving ribozyme.
With GGCAGAGCUCAACACGGCAUGGCAAAGCGGCUGUGGCUAGACUGCC [A16G G19A U28C], the self-cleavage was determined as 0.6.

As for GGCAGAGCUCAACACCACGUGGCAAAGUUGCUGUGGCUAGACUGCC [A16C G17A G29U], the self-cleavage stood at 0.12. For GGCAGAGCUCAACACGGCGUGGCAAACAGGCUGUGGCUAGACUGCC [A16G G27C U28A] the value was 0.14. For the variant GGCAGAGCUCAACACCGCGAGGCGAAGUGGCUAUGGCAAGACUGCC [A16C U20A A24G G33A U38A], the self-cleavage amounted to 0.01. As for GGCAGAGCUCAACACCGCGUGACAAAGUGGCUGUGGCUACACUGUC [A16C G22A G40C C45U], the self-cleavage was 0. As to GGCAGAGCUCAACACGGCGUGGCUAAGUGGUUGUGGCUAGACUGCC [A16G A24U C31U], the self-cleavage was determined as 0.01. Consider GGCAGAGCUCAACACCGAGUGGCAAAGAGGCUGUGUCUAGACUGCC [A16C C18A U28A G36U], for which the self-cleavage came to 0.03. Take GGCAGAGCUCAACACCGCAUGGCAAGGUGGCUGUCGCUAGACUGCC [A16C G19A A26G G35C]: the self-cleavage turned out to be 0.02.

GGCAGAGCUCAACACGGCAUUGCAAGGUGGCUGUGGCUAGACUGCC [A16G G19A G21U A26G]: the self-cleavage was 0.76. With GGCAGAGCUCAACACCGCGGGGUAAAGUGGGUGUGGCUAGACUGCC [A16C U20G C23U C31G], the self-cleavage was found to be 0.02.

In the case of GGCAGAGCUCAACACCGCGUGCCAAAGCGGCUGUGGCUAGACUGCC [A16C G22C U28C], the self-cleavage was determined as 0.03. With GGCAGAGCUCAACACGGAGAGGCAAAGCGGCUGUGGCUAGACUGCC [A16G C18A U20A U28C], the self-cleavage stood at 0.05.

Regarding GGCAGAGCUCAACACCGCGUGGCAACCUGGCUGGGGCUAGACUGCC [A16C A26C G27C U34G], the self-cleavage worked out at 0.02. For GGCAGAGCUCAACACGGCGUGGCACAUUGGCUGUGGCUAGACUGCC [A16G A25C G27U] the value was 0.55; for GGCAGAGCUCAACACCGCGUGGCAGAGUGGGUGUGGCUAGACGGCC [A16C A25G C31G U43G], 0.04. GGCAGAGCUCAACACCGCGUGGCAAAAUGGCUGUGGCUAGACUGCA [A16C G27A C46A]: the self-cleavage amounted to 0.55. For the variant GGCAGAGCUCAACACCGCGUGGCAAAGUGGCUAUGGCUGGACUGCC [A16C G33A A39G], the self-cleavage stood at 0.02. For GGCAGAGCUCAACACGGCGUGUCAAAGGGGCUGUGGCUAGACUGCA [A16G G22U U28G C46A] the value was 0. The figure for GGCAGAGCUCAACACGGCGUGGCAAAGUUGCUGUGGCUAGAAUGCC [A16G G29U C42A] is 0.07. The figure for GGCAGAGCUCAACACGGAGUGGCAAAGUGGCUUGGGCUAGACUGCC [A16G C18A G33U U34G] is 0.04. Turning to GGCAGAGCUCAACACCGCGUGGCAAAGUUGCUGUGGAUAAACUGCC [A16C G29U C37A G40A], the self-cleavage was found to be 0.17. On to GGCAGAGCUCAACACGGCGUGGCAAAUUGGCUGUGGCUACACUGCC [A16G G27U G40C], for which the self-cleavage was 0.05. On to GGCAGAGCUCAACACGGUGUGGCAAAGUUGCUGUGGCUAGACUUCC [A16G C18U G29U G44U], for which the self-cleavage is 0.02. Regarding GGCAGAGCUCAACACCGCGCGACAAUAUGUCUGUGGCUAGACUGCC [A16C U20C G22A A26U G27A G30U], the self-cleavage worked out at 0.05. As to GGCAGAGCUCAACACCGAGUGGCAAAGUGGAUGUGGCUAGAAUGCC [A16C C18A C31A C42A], the self-cleavage stood at 0.01. For the variant GGCAGAGCUCAACACGGCUUGGCCACGUGGAUGUGGCUAGACUGCG [A16G G19U A24C A26C C31A C46G], the self-cleavage amounted to 0.03. As for GGCAGAGCUCAACACGGCGUUGCAAAGUGGGUGUGGCUAGUCUGCC [A16G G21U C31G A41U], the self-cleavage amounted to 0.01. As to GGCAGAGCUCAACAUAGCGUGGCAAAGUGGCUGUGGCAAGCCUGCG [C15U U38A A41C C46G], the self-cleavage turned out to be 0.01. Turning to GGCAGAGCUCAACACCGCGUCGCAAAGUGGCUGUGGUUAGACUGGC [A16C G21C C37U C45G], the self-cleavage was 0.19. As for GGCAGAGCUCAACACCGCGUGGCCACGUGGCUGUGGCUAGACUGCC [A16C A24C A26C], the self-cleavage amounted to 0.04.

In the case of GGCAGAGCUCAACACGCCUUGGCAAAGUGGCUAUGGCUAGACUGCC [A16G G17C G19U G33A], the self-cleavage amounted to 0.01. Consider GGCAGAGCUCAACACGGCGUGGCAGAGUGGCUGUGGCUAGAUUGCA [A16G A25G C42U C46A], for which the self-cleavage was 0.05. As for GGCAGAGCUCAACACGGCGUGGCAAAGUGGCUGUGGCUAGAAUGCA [A16G C42A C46A], the self-cleavage was determined as 0.01. As to GGCAGAGCUCAACAUAGCGUGGCAAAGUGGCUGUGGCUAGACCGGC [C15U U43C C45G], the self-cleavage came out at 0.05. Regarding GGCAGAGCUCAACACCGCGUGGCAAAGUGGCUGUGGCUAGCCUGCU [A16C A41C C46U], the self-cleavage was found to be 0.14. The figure for GGCAGAGCUCAACACGGCGUGGCAAAGUCGCUGUGGCUAUACUGCC [A16G G29C G40U] is 0.04. As to GGCAGAGCUCAACACCGCGUGGCAAAGUGGCUGUGUCUAGACUACC [A16C G36U G44A], the self-cleavage turned out to be 0.02.

As for GGCAGAGCUCAACAUAGCGUGGCAAAGUGGCUGUGGCCAGAAUGCU [C15U U38C C42A C46U], the self-cleavage is 0.11. With GGCAGAGCUCAACACGGCGUGGAAAAGUGGCAGUAGCUAGACUGCC [A16G C23A U32A G35A], the self-cleavage was 0.17. As to GGCAGAGCUCAACACCGCGUGGCAAAGUGGCUGUGGCUCCACUCCC [A16C A39C G40C G44C], the self-cleavage amounted to 0.03.

GGCAGAGCUCAACACGGGGUGGCAAAGUGGCUGUGGCUAGACUGCG [A16G C18G C46G]: the self-cleavage came to 0.05. The figure for GGCAGAGCUCAACACGACGUGGCAAAGUGGCUGUGGCUAGACUGAC [A16G G17A C45A] is 0.03; for GGCAGAGCUCAACACCGUGUGCAAAAGUGGUUGUGGCUAGACUGCC [A16C C18U G22C C23A C31U] it is 0.02. Turning to GGCAGAGCUCAACACGGCGUGGCAAAGUGGGUGUGGCAAGAAUGCC [A16G C31G U38A C42A], the self-cleavage turned out to be 0.01. GGCAGAGCUCAACACCGCAUGGCAAAGUGACUGUGGCUAGACUGCC [A16C G19A G30A]: the self-cleavage was determined as 0.14.

Take GGCAGAGCUCAACACGGCGUGGCAAAAUAGCUGUGGCUAGACUGGC [A16G G27A G29A C45G]: the self-cleavage was 0.09. For GGCAGAGCUCAACACCACUUGGCAAAGUGGCUGUGGCUAGACUGCC [A16C G17A G19U] the value was 0.04; for GGCAGAGCUCAACACGGCGUGGCAAAUAGGCUGUGGCGAGACUGCC [A16G G27U U28A U38G], 0.05; for GGCAGAGCUCAACACCGCGUGGCAAAGUGGCUGUGUCUAGACUGGC [A16C G36U C45G], 0.02. On to GGCAGAGCUCAACACCGCGUUGCAAAGUGGCGGUGGCUAGACUGCC [A16C G21U U32G], for which the self-cleavage stood at 0.83. Consider GGCAGAGCUCAACACGGCGUGGCAAGCUGGCUGUGGCUAGACUGCC [A16G A26G G27C], for which the self-cleavage was 0. With GGCAGAGCUCAACACGGCGUGGCAAGAUGGCUGUGGCUAGACUGCC [A16G A26G G27A], the self-cleavage is 0.14. Turning to GGCAGAGCUCAACACCGCGUGGCAAAGUGGCUGUAGCUAGUCUGCC [A16C G35A A41U], the self-cleavage was determined as 0.01. Regarding GGCAGAGCUCAACACCGCGUGGUAAAUUGGCUGUGGCUAGACUGGC [A16C C23U G27U C45G], the self-cleavage came to 0.02. For GGCAGAGCUCAACACCGCGUGGCAAAGUGGCUGUCGCUAGGCUGCU [A16C G35C A41G C46U], the self-cleavage came out at 0.

As to GGCAGAGCUCAACACGGCGUGUCAAAGUGGCUGUUGCAAGACUGCC [A16G G22U G35U U38A], the self-cleavage amounted to 0.09.
